According to the RNAGym collection of RNA variant scans (doi:10.1073/pnas.2313332121):
This sample is rich in variants without activity.

B1: TPR 5TU (parent)
chain: GGAUCUUCUCGAUCUAACAAAAAAGACAAAUCUGCCACAAAGCUUGAGAGCAUCUUCGGAUGCAGAGGCGGCAGCCUUCGGUGGCGCGAUAGCGCCAACGUUCUCAACUAUGACACGCAAAACGCGUGCUCCGUUGAAUGGAGUUUAUCAUG

Variants of: B1
Assay: polymerase ribozyme fitness, log enrichment relative to wild type (log ratio); higher = more active; in vitro selection for triplet polymerase activity
Method in brief: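 Fitness compares each genotype's enrichment to that of the wild type on a logarithmic scale, averaging replicates with inverse-variance weights. The logarithm is base 2. Enrichment came from Illumina sequencing of input and output libraries after one triplicate round of in vitro selection, which included frozen incubation at −7 °C, of PCR-built, transcribed mutant libraries of each subunit of a heterodimeric triplet polymerase ribozyme. Only genotypes with ≥10 input reads and ≥1 read per output were kept.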

A3U U33A U53A A91U C95G A110C A121G U135C A137U and A3U U45A A91C G124A U127A A147C cannot be ordered by “polymerase ribozyme fitness (log ratio)” value: ≤ -4.2 for the first, ≤ -4.2 for the second.

A3U U53A C93A U101C C125U C132U G140U A147C and A3U U55A G68A G86U U90A A97U U101A A137C U145C cannot be ordered by “polymerase ribozyme fitness (log ratio)” value: ≤ -4.2 for the first, ≤ -4.2 for the second.

Going from A3U U56A to A3U U56C C87U A89G U101G, the “polymerase ribozyme fitness (log ratio)” value falls from -1 to -2.52.

First: A3U U82A C87A
Second: U4A A12C U55A G84U
The “polymerase ribozyme fitness (log ratio)” value of the first is lower: ≤ -4.2 for the first, -2.4 for the second.

U4A A16C C76G A115G G143A and U4A A19C A52U A60U G62C G80U G88A C103U C123U G133U A137U cannot be ordered by “polymerase ribozyme fitness (log ratio)” value: ≤ -4.2 for the first, ≤ -4.2 for the second.

Going from U4A A21C G80A to U4A A21G A26U U55C G81A G86C G143C, the “polymerase ribozyme fitness (log ratio)” value falls from -0.338 to ≤ -4.2.

U4A A21G C76A C85A G86U C95A and U4A A21G G34U G67C G92A C95A C96G U151G cannot be ordered by “polymerase ribozyme fitness (log ratio)” value: ≤ -4.2 for the first, ≤ -4.2 for the second.

U4A A22U C63U G67A C75A G94A C96U and U4A A23G A24U A26U U31C C75A U77G C129U cannot be ordered by “polymerase ribozyme fitness (log ratio)” value: ≤ -4.2 for the first, ≤ -4.2 for the second.

U4A A26G C54G A60C G81U G86A G112U and U4A A26G G92A A122C cannot be ordered by “polymerase ribozyme fitness (log ratio)” value: ≤ -4.2 for the first, ≤ -4.2 for the second.

U4A A28U C93U A97U C105G G126A G136U and U4A A29U G86C G141C cannot be ordered by “polymerase ribozyme fitness (log ratio)” value: ≤ -4.2 for the first, ≤ -4.2 for the second.

Compared with U4A A37C U61A A66G G133U U144A, U4A A37U G94C A150G is higher in “polymerase ribozyme fitness (log ratio)” value: ≤ -4.2 for the first, -4.19 for the second.

U4A A39C U53A C96U C108U A120U C125U and U4A A47C A60U G84U C93U A98U C108U C131A cannot be ordered by “polymerase ribozyme fitness (log ratio)” value: ≤ -4.2 for the first, ≤ -4.2 for the second.

U4A A49G C87A and U4A C8A A52G C87U A98C cannot be ordered by “polymerase ribozyme fitness (log ratio)” value: ≤ -4.2 for the first, ≤ -4.2 for the second.

Compared with U4A C8A U56A A122G G141A, U4A C8U C10U C51U U55G C99G U148G is lower in “polymerase ribozyme fitness (log ratio)” value: -4.11 for the first, ≤ -4.2 for the second.

U4A C8U C108G G140C and U4A C10A C85G A115U cannot be ordered by “polymerase ribozyme fitness (log ratio)” value: ≤ -4.2 for the first, ≤ -4.2 for the second.

U4A C14A U15G A28U C35U G46U C95U and U4A C14A U44G G92U A106G A113C cannot be ordered by “polymerase ribozyme fitness (log ratio)” value: ≤ -4.2 for the first, ≤ -4.2 for the second.

U4A C18U A64C G68A C79G and U4A C18U G67A C93G G124A cannot be ordered by “polymerase ribozyme fitness (log ratio)” value: ≤ -4.2 for the first, ≤ -4.2 for the second.

U4A C35A A37G U56A C75G C108G G140U and U4A C36A U55C U82A A119C cannot be ordered by “polymerase ribozyme fitness (log ratio)” value: ≤ -4.2 for the first, ≤ -4.2 for the second.

U4A C38U A40U G42U A73G U82C G94U A107G and U4A C75A C76U G86A C123U cannot be ordered by “polymerase ribozyme fitness (log ratio)” value: ≤ -4.2 for the first, ≤ -4.2 for the second.

U4A G42C U45A G84A C108U and U4A G48C C75A G81C A91G G92C C123A U145G cannot be ordered by “polymerase ribozyme fitness (log ratio)” value: ≤ -4.2 for the first, ≤ -4.2 for the second.

U4A G68A C93U C108U C116A U135A G140C and U4A G83C G94U U148G cannot be ordered by “polymerase ribozyme fitness (log ratio)” value: ≤ -4.2 for the first, ≤ -4.2 for the second.

U4A U6A A28U A30G U44A G59C A60G C87U A89U A97C A107U and U4A U6A C36U C57G G68U C79G A91C cannot be ordered by “polymerase ribozyme fitness (log ratio)” value: ≤ -4.2 for the first, ≤ -4.2 for the second.

U4A U9G A24U C27A A122C and U4A U9G C75A C85A G94A C95A A110G cannot be ordered by “polymerase ribozyme fitness (log ratio)” value: ≤ -4.2 for the first, ≤ -4.2 for the second.

U4A U15G A91C C114U C125A and U4A U33A G48C C57U C85U A115G C129G G141U cannot be ordered by “polymerase ribozyme fitness (log ratio)” value: ≤ -4.2 for the first, ≤ -4.2 for the second.

U4A U56A A91U C116G U130G and U4C A12U C57G C85U A98G G128U cannot be ordered by “polymerase ribozyme fitness (log ratio)” value: ≤ -4.2 for the first, ≤ -4.2 for the second.

U4C A16C A19U G86U C96A C108A and U4C A16G A52U G59C G68A A91G G126A U130A cannot be ordered by “polymerase ribozyme fitness (log ratio)” value: ≤ -4.2 for the first, ≤ -4.2 for the second.

U4C A16G C85A C99G G141C and U4C A16U C38A A52G C76U C85A C96A C125U cannot be ordered by “polymerase ribozyme fitness (log ratio)” value: ≤ -4.2 for the first, ≤ -4.2 for the second.

Going from U4C A19C U31A C38U U82G C93A U134G to U4C A19U G86U, the “polymerase ribozyme fitness (log ratio)” value rises from ≤ -4.2 to -2.06.

Compared with U4C A20C A40G G84U U127A, U4C A20G C85A A98C A115G is higher in “polymerase ribozyme fitness (log ratio)” value: ≤ -4.2 for the first, -2.8 for the second.

Compared with U4C A22C G48U C93G A122C, U4C A23G U53G U56A G92C C95A is lower in “polymerase ribozyme fitness (log ratio)” value: -3.98 for the first, ≤ -4.2 for the second.

U4C A24U C32G A37G C57G G84A U90C A98G and U4C A26U A52U C87A C95A U109A U145G U146G cannot be ordered by “polymerase ribozyme fitness (log ratio)” value: ≤ -4.2 for the first, ≤ -4.2 for the second.

U4C A28C C75A G92A C108G and U4C A28U C38G cannot be ordered by “polymerase ribozyme fitness (log ratio)” value: ≤ -4.2 for the first, ≤ -4.2 for the second.

U4C A29C C54U G84A A97U and U4C A37U G50U C95U G128A cannot be ordered by “polymerase ribozyme fitness (log ratio)” value: ≤ -4.2 for the first, ≤ -4.2 for the second.

U4C A39G G67C C85A G88C A89G G94A U139G and U4C A40G G92C G136U U146G cannot be ordered by “polymerase ribozyme fitness (log ratio)” value: ≤ -4.2 for the first, ≤ -4.2 for the second.

U4C A52C U53A G70C C85A U102G C108A G141U and U4C C5G C32A A40C U82C A98G C103U A113C A150C cannot be ordered by “polymerase ribozyme fitness (log ratio)” value: ≤ -4.2 for the first, ≤ -4.2 for the second.

U4C C10G C27A A47C U56C U78A G92U A115U G140U and U4C C10U A20C A29U A52C A138C G140U cannot be ordered by “polymerase ribozyme fitness (log ratio)” value: ≤ -4.2 for the first, ≤ -4.2 for the second.

U4C C18G A52G C54U G70A A91C C93A G128U G133C U151C and U4C C27G A60U A119U U134C cannot be ordered by “polymerase ribozyme fitness (log ratio)” value: ≤ -4.2 for the first, ≤ -4.2 for the second.

U4C C27U G62C C85A A138U and U4C C35G A47C U53A C87U G100C C123U cannot be ordered by “polymerase ribozyme fitness (log ratio)” value: ≤ -4.2 for the first, ≤ -4.2 for the second.

U4C C35G C96U and U4C C35U A142G U148A cannot be ordered by “polymerase ribozyme fitness (log ratio)” value: ≤ -4.2 for the first, ≤ -4.2 for the second.

Compared with U4C C38U G59C G80C U104C G140U, U4C C57A C95A C96U G141A is higher in “polymerase ribozyme fitness (log ratio)” value: ≤ -4.2 for the first, -3.87 for the second.

U4C C85G A107U and U4C G11A C57A C96U G124A A150C cannot be ordered by “polymerase ribozyme fitness (log ratio)” value: ≤ -4.2 for the first, ≤ -4.2 for the second.

For U4C G25A A41C U44A A64U C85A C87G C103G U145A, the “polymerase ribozyme fitness (log ratio)” value was ≤ -4.2.
